In PubChem BioAssay AID651820 (National Center for Advancing Translational Sciences (NCATS), 2012):
In all, about 340,000 compounds went through this assay and about 12,000 (3.5%) were called active. The shares of active, inactive and inconclusive entries below differ from those in the screen. The call rests on the fitted dose curve; in most records, active means well fitted inhibition curve with a large enough effect; inconclusive means small, poorly fitted or top-dose-only effect, or another doubt; inactive means no such curve, though single readings can be large or run the other way. No potency is given beside an inconclusive call; the fits are too rough.

Experiment: qHTS Assay for Inhibitors of Hepatitis C Virus (HCV)
Conditions: Huh7.5.1 HCVcc-Cre (HCVcc is cell-culture hepatitis C virus) infection, luciferase reporter, 44 h; activity change, negative = inhibition: at 41.8 µM (top of the series)
Procedure, shortened: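 A cell-based infection assay in which seeded cells (1,000 per well) receive test compound after 4 h, are inoculated with HCVcc-Cre at approximately 0.5 moi, and are incubated 44 h before luminescence detection.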
On the % scale 0 is the no-effect control and ±100 the full control effect; potency means the concentration at half of the fitted maximal effect; tags describe the fitted curve by direction and shape.

**Q.** Which Potency does the source give for `CCOc1ccc2nc(NC(=O)CN3CCN(C)CC3)sc2c1` here?
**A.** inconclusive [inhibitor, partial curve]

**Q.** For `COc1ccc(NC(=O)Nc2cc(C)ccn2)cc1`, which “activity change, negative = inhibition” value is on record?
**A.** inactive: -1.1%

**Q.** Which Potency does the source give for `CC(=O)Nc1ccc(NC2=C(Cl)C(=O)c3ccccc3C2=O)cc1` here?
**A.** active: 3.16 µM

**Q.** Which Potency does the source give for `COc1cccc(CNC[C@H]2O[C@@H](n3cnc(C(N)=O)n3)[C@H](O)[C@@H]2O)c1OCc1ccc(F)cc1Cl` here?
**A.** inconclusive [inhibitor, full curve]

**Q.** Which Potency does the source give for `Cc1nnc(N2C(=O)c3cccc4c([N+](=O)[O-])ccc(c34)C2=O)s1` here?
**A.** inconclusive [inhibitor, single point]

**Q.** With `CCC(C)(C)NC(=O)C(c1ccc(F)cc1)N(Cc1ccccc1)C(=O)c1cnccn1` (configuration not stated) as the compound, how does the Potency read?
**A.** active: 1.41 µM

**Q.** With `COC(=O)NCC(c1ccc2c(c1)OCO2)N1CCN(c2ccc(OC)cc2)CC1` (configuration not stated) as the compound, how does the Potency read?
**A.** inconclusive [inhibitor, single point]

**Q.** With `CCN(C[C@H]1N[C@@](CC)(C(=O)OC)[C@H]2C(=O)N(C)C(=O)[C@@H]12)S(=O)(=O)c1ccc(-c2ccccc2)cc1` as the compound, how does the Potency read?
**A.** inconclusive [inhibitor, full curve, poor fit]

**Q.** With `CCc1ccc(Nc2cnn(-c3nc4ccccc4s3)c(=O)c2Cl)cc1` as the compound, how does the Potency read?
**A.** inconclusive [inhibitor, single point]

**Q.** With `CCCCOC1CC(c2ccc(OCc3ccc(OC)cc3)c(OC)c2)N(C)O1` (configuration not stated) as the compound, how does the Potency read?
**A.** inconclusive [inhibitor, partial curve]

**Q.** With `CCOC(=O)CCCc1ccc(/C(C)=N/NC(N)=S)cc1` as the compound, how does the Potency read?
**A.** inconclusive [inhibitor, partial curve, poor fit]

**Q.** For `O=C(Nc1ccc(Oc2ccccc2)nc1)C1CCN(Cc2ccco2)CC1`, which Potency is on record?
**A.** inconclusive [inhibitor, single point]

**Q.** For `CCn1cc(C2=NCC(C)O2)c2ccccc21` (configuration not stated), which Potency is on record?
**A.** active: 14.1 µM

**Q.** Which Potency does the source give for `CCN(C#N)c1nc(N(C)C)nc(N(C)C)n1` here?
**A.** active: 10 µM

**Q.** With `c1ccc(CNc2nc(-c3cccnc3)nc3ccccc23)cc1` as the compound, how does the Potency read?
**A.** inconclusive [inhibitor, partial curve]

**Q.** Which “activity change, negative = inhibition” value does the source give for `CC(C)(C)c1nc(CN2CCOCC2)cc(CN2CCOCC2)c1O` here?
**A.** inactive: 9.02%

**Q.** For `Cc1ccccc1OCC(O)CN(CCO)Cc1ccccc1` (configuration not stated), which “activity change, negative = inhibition” value is on record?
**A.** inactive: -4.59%

**Q.** With `COc1ccc(CCNc2ccncn2)cc1` as the compound, how does the Potency read?
**A.** inconclusive [inhibitor, single point]

**Q.** Which Potency does the source give for `C#CCn1c(=NC(=O)c2cccs2)sc2cccc(OC)c21` here?
**A.** inconclusive [inhibitor, full curve]

**Q.** With `CC1CCCCC1NC(=O)CN1C(=O)CSc2cc(S(=O)(=O)N3CCCCCC3)ccc21` (configuration not stated) as the compound, how does the Potency read?
**A.** inconclusive [inhibitor, single point]

**Q.** Which Potency does the source give for `Cc1ccc2cc(CN(c3ccc(C)c(C)c3)S(C)(=O)=O)c(=O)[nH]c2c1` here?
**A.** inconclusive [inhibitor, single point]

**Q.** For `CCOc1cc(/C=N/N=C(\N)c2nonc2N)cc(Br)c1OCc1cccc2ccccc12`, which Potency is on record?
**A.** inconclusive [inhibitor, partial curve]

**Q.** For `COc1ccc(CCNC2CC(C)N(C)CC2C)cc1OC` (configuration not stated), which Potency is on record?
**A.** inconclusive [inhibitor, partial curve]

**Q.** With `CCc1nn(CC(=O)N2CCN(Cc3ccc4c(c3)OCO4)CC2)c(=O)c2cc3occc3n12` as the compound, how does the Potency read?
**A.** inconclusive [inhibitor, partial curve]

**Q.** With `Cc1cc(C(=O)N/N=C/c2cc(Br)ccc2OC(=O)c2ccccc2Cl)n[nH]1` as the compound, how does the Potency read?
**A.** inconclusive [inhibitor, single point]

**Q.** For `COc1ccc(C2CC(c3ccccc3F)=NN2c2ccc(S(N)(=O)=O)cc2)cc1` (configuration not stated), which “activity change, negative = inhibition” value is on record?
**A.** inactive: -0.677%

**Q.** Which Potency does the source give for `CCOc1ccc(CCNC(=O)COC(=O)c2ccc(S(=O)(=O)N3CCCC3)cc2)cc1OCC` here?
**A.** inconclusive [inhibitor, single point]

**Q.** With `Cc1ccccc1S(=O)(=O)Cc1ccc(C(=O)NCCCN2CCCC(C)C2)o1` (configuration not stated) as the compound, how does the “activity change, negative = inhibition” value read?
**A.** inactive: 6.04%

**Q.** Which Potency does the source give for `CN(Cc1ccccc1)c1ccc(C(CC(N)=O)NC(=O)c2ccccc2)cc1[N+](=O)[O-]` (configuration not stated) here?
**A.** inconclusive [inhibitor, partial curve]

**Q.** Which Potency does the source give for `COC(=O)c1sc2ccccc2c1N` here?
**A.** inconclusive [inhibitor, single point]

**Q.** For `CCOc1ccc(NC(=O)C2CCN(c3nnnn3-c3ccccc3)CC2)cc1`, which Potency is on record?
**A.** inconclusive [inhibitor, full curve, poor fit]

**Q.** For `COC(=O)c1ccc(N2CCOCC2)c(NC(=O)c2ccco2)c1`, which “activity change, negative = inhibition” value is on record?
**A.** inactive: -2.97%

**Q.** For `COc1ccc(Cc2nnc(Nc3ccc4c(c3)OCCO4)[nH]c2=O)cc1`, which “activity change, negative = inhibition” value is on record?
**A.** inactive: 16.7%

**Q.** Which Potency does the source give for `CCc1ccc(NC(=O)CSc2nc3n[nH]c(C)c3c(=N)n2-c2cccc(OC)c2)cc1` here?
**A.** active: 7.08 µM

**Q.** Which Potency does the source give for `CN1CCN(c2ccc(NC(=O)c3ccc(-c4cccc([N+](=O)[O-])c4)o3)cc2)CC1` here?
**A.** inconclusive [inhibitor, partial curve, poor fit]

**Q.** With `CN(Cc1ccccc1)C(=O)c1ncn(C)c1C(=O)N(C)Cc1ccccc1` as the compound, how does the “activity change, negative = inhibition” value read?
**A.** inactive: -2.16%

**Q.** With `COc1ccc(C2(C(=O)Nc3ccc(OC)cc3OC)CCCC2)cc1` as the compound, how does the Potency read?
**A.** inconclusive [inhibitor, partial curve]

**Q.** For `CCN(CC)Cc1c(O)ccc2c([N+](=O)[O-])c(C)n(-c3ccc(OC)cc3)c12`, which Potency is on record?
**A.** inconclusive [inhibitor, single point]

**Q.** Which Potency does the source give for `C[C@H](NC(=O)c1nc[nH]c1C(=O)NCc1ccccc1)c1ccccc1` here?
**A.** inconclusive [inhibitor, full curve, poor fit]

**Q.** Which “activity change, negative = inhibition” value does the source give for `Cc1ccc(S(=O)(=O)Nc2c(C)n(C)n(-c3ccccc3)c2=O)c(C)c1` here?
**A.** inactive: 9.64%

**Q.** Which Potency does the source give for `Cc1ccccc1OCC(=O)Nc1ccc(N2CCN(C(=O)C(C)C)CC2)c(Cl)c1` here?
**A.** active: 31.6 µM

**Q.** Which Potency does the source give for `CCSC1(SCC)N=C(N)C2(C#N)C(c3ccc(OC)c(OC)c3OC)C12C#N` (configuration not stated) here?
**A.** active: 8.91 µM

**Q.** Which “activity change, negative = inhibition” value does the source give for `O=S(=O)(O)c1ccc(Cl)c(Cl)c1` here?
**A.** inactive: 8.25%

**Q.** For `COc1ccc(C(=O)Nc2ccc(C3(C#N)CCCC3)cc2)cc1OC`, which Potency is on record?
**A.** inconclusive [inhibitor, partial curve]

**Q.** Which Potency does the source give for `CCC(=O)N(C1=C(NC)C(=O)c2ccccc2C1=O)C(C)C` here?
**A.** inconclusive [inhibitor, full curve]

**Q.** For `Cc1cccc(NC(=O)c2nc[nH]c2C(=O)N[C@@H](Cc2ccccc2)C(=O)OC(C)(C)C)c1`, which Potency is on record?
**A.** inconclusive [inhibitor, single point]

**Q.** Which Potency does the source give for `CCCN(C(=O)c1ccco1)c1nnc(-c2ccccc2C)s1` here?
**A.** inconclusive [inhibitor, single point]

**Q.** With `CSCCC(NC(=O)C1CC1)c1nc2ccccc2[nH]1` (configuration not stated) as the compound, how does the “activity change, negative = inhibition” value read?
**A.** inactive: 12.6%

**Q.** For `CC12CCC(=O)N1C(C(=O)Nc1cccc(S(=O)(=O)N3CCCCCC3)c1)CS2` (configuration not stated), which Potency is on record?
**A.** inconclusive [inhibitor, single point]

**Q.** For `S=C(NCc1ccc(Cl)cc1)NC1CCCCC1`, which Potency is on record?
**A.** inconclusive [inhibitor, single point]

**Q.** Which Potency does the source give for `COCc1cc(N2CCN(c3ccccc3F)CC2)nc(-c2ccccc2)n1` here?
**A.** inconclusive [inhibitor, partial curve]

**Q.** Which Potency does the source give for `CCCN(c1ccc(OCC)cc1)S(=O)(=O)c1ccc2c(c1)NC(=O)CO2` here?
**A.** inconclusive [inhibitor, single point]

**Q.** For `CCOC(=O)Cc1csc(NS(=O)(=O)Cc2ccccc2)n1`, which “activity change, negative = inhibition” value is on record?
**A.** inactive: 3.18%

**Q.** Which “activity change, negative = inhibition” value does the source give for `Cc1ccc(-c2c(C(=O)N/N=C/c3ccc(OC(C)C)cc3)nnn2-c2nonc2N)cc1` here?
**A.** inactive: 6.68%

**Q.** Which “activity change, negative = inhibition” value does the source give for `Cc1cc2ccccc2c(=O)n1CC(=O)N(C)c1ccc(F)cc1` here?
**A.** inactive: 7.15%

**Q.** With `COc1cc(OC)c(OC)cc1/C=N/N(C)c1ccccc1` as the compound, how does the Potency read?
**A.** active: 8.91 µM

**Q.** For `COc1ccc(OC)c2c1C(=O)C(Cl)=C(Cl)C2=O`, which Potency is on record?
**A.** inconclusive [inhibitor, full curve]

**Q.** With `O=c1c(Cl)c(Cl)cnn1Cc1nnc(-c2ccc(Cl)cc2)o1` as the compound, how does the Potency read?
**A.** active: 10 µM

**Q.** For `COc1ccc(C(=O)NC(=S)Nc2cccnc2)cc1OC`, which “activity change, negative = inhibition” value is on record?
**A.** inactive: -7.29%

**Q.** For `O=C(Nc1ccn(Cc2c(F)c(F)c(F)c(F)c2F)n1)c1cccc(Cn2cc([N+](=O)[O-])cn2)c1`, which Potency is on record?
**A.** inconclusive [inhibitor, single point]

**Q.** With `Cc1cc(C)c(S(=O)(=O)NCCc2ccncc2)c(C)c1` as the compound, how does the “activity change, negative = inhibition” value read?
**A.** inactive: -2.51%

**Q.** Which Potency does the source give for `COc1cccc(C(=O)N/N=C/C(Br)=C/c2ccccc2)c1` here?
**A.** inconclusive [inhibitor, full curve]

**Q.** With `Cc1oc(-c2ccc(Cl)cc2)nc1CS(=O)CC(=O)NCCCN(C)C1CCCCC1` (configuration not stated) as the compound, how does the Potency read?
**A.** active: 10 µM

**Q.** With `CCOC(=O)C1(Cc2ccccc2C(F)(F)F)CCN(C2CCCC2)CC1` as the compound, how does the “activity change, negative = inhibition” value read?
**A.** inactive: -22.4%

**Q.** With `Cn1c(=O)c(NCCc2ccccc2)c2c3c(cccc31)C(=O)c1ccccc1-2` as the compound, how does the Potency read?
**A.** inconclusive [inhibitor, single point]

**Q.** For `C=CCNc1nnnc2c1sc1nc(N3CCOCC3)c3c(c12)CCCC3`, which Potency is on record?
**A.** inconclusive [inhibitor, single point]

**Q.** For `O=Cc1ccc(OCc2nnsc2Cl)cc1`, which “activity change, negative = inhibition” value is on record?
**A.** inactive: -0.65%

**Q.** For `COc1cccc(-c2csc(N3CCN(C(=S)Nc4ccc(Cl)cc4)CC3)n2)c1`, which Potency is on record?
**A.** active: 12.6 µM

**Q.** Which “activity change, negative = inhibition” value does the source give for `NC(=O)N/N=C1\CCS(=O)(=O)c2ccc(F)cc21` here?
**A.** inactive: 5.81%

**Q.** With `CC(=O)c1ccc(Nc2cc(C)nc3ccc(C)cc23)cc1` as the compound, how does the Potency read?
**A.** inconclusive [inhibitor, single point]

**Q.** Which Potency does the source give for `O=C(CSc1nnc(-c2ccccc2)n1Cc1ccco1)Nc1ccc(S(=O)(=O)N2CCCC2)cc1` here?
**A.** active: 14.1 µM

**Q.** For `O=c1c2cc3c(cc2[nH]c(=S)n1C1CCN(Cc2ccccc2)CC1)OCO3`, which Potency is on record?
**A.** active: 12.6 µM
